The values below come from the supplement of paper PMC12217912.

The list shows a part of the results. The full chains were built here from the parent and the listed change. Inactive controls read about 0.05.

The chains are these.
B1: TEV protease; numbered along this chain (parent)
chain: MGESLFKGPRDYNPISSSICHLTNESDGHTTSLYGIGFGPFIITNKHLFRRNNGTLVVQSLHGVFKVKDTTTLQQHLVDGRDMIIIRMPKDFPPFPQKLKFREPQREERICLVTTNFQTKSMSSMVSDTSCTFPSGDGIFWKHWIQTKDGQCGSPLVSTRDGFIVGIHSASNFTNTNNYFTSVPKNFMELLTNQEAQQWVSGWRLNADSVLWGGHKVFMVKPEEPFQPVKEATQL

In this assay the parent is B1. Briefly: raw area under fraction-flipped curve 0-4 h after induction (AUC4h, not background-subtracted), DNA-recorder readout of cleavage of the substrate (dimensionless); higher = more cleavage of the substrate by the protease variant. As to conditions: temperature: 34 °C; time window: 0-4 h after rhamnose induction. How it is done: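 In vivo DNA recorder in E. coli TOP10(DE3) ΔrhaA at 34 °C. Each TEVp single-site mutant (parent TEVp 0) is paired with a single-site variant of the 7-mer TEVs (canonical ENLYFQ|S). The substrate sits between flexible linkers in a Bxb1-sfGFP-TEVs-SsrA fusion, so cleavage stabilises Bxb1 and speeds flipping of a recombination array, read by NGS. The value is the raw area under the fraction-flipped curve over 0-4 h after rhamnose induction (AUC4h), with ≥20 reads per time point. It is not background-subtracted; inactive controls average about 0.047.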
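Also: Bxb1 expression induced with 0.2% (w/v) L-rhamnose at OD600 near 0.5, cultures sampled hourly, flipped fraction per protease–substrate barcode pair counted by paired-end Illumina sequencing.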

In the case of MGESLFKGPRMYNPISSSICHLTNESDGHTTSLYGIGFGPFIITNKHLFRRNNGTLVVQSLHGVFKVKDTTTLQQHLVDGRDMIIIRMPKDFPPFPQKLKFREPQREERICLVTTNFQTKSMSSMVSDTSCTFPSGDGIFWKHWIQTKDGQCGSPLVSTRDGFIVGIHSASNFTNTNNYFTSVPKNFMELLTNQEAQQWVSGWRLNADSVLWGGHKVFMVKPEEPFQPVKEATQL [D11M], the “area with substrate ENLAFQS” value is 0.0644, the “area with substrate ENLCFQS” value came out at 0.0736, the “area with substrate ENLDFQS” value worked out at 0.0586 and the “area with substrate ENLFFQS” value is 0.0652. Besides, the “area with substrate ENLHFQS” value amounted to 0.0628, the “area with substrate ENLKFQS” value was 0.0654, the “area with substrate ENLLFQS” value amounted to 0.073 and the “area with substrate ENLMFQS” value came out at 0.0683. Moreover, the “area with substrate ENLNFQS” value was 0.0678, the “area with substrate ENLPFQS” value turned out to be 0.0664, the “area with substrate ENLQFQS” value turned out to be 0.0613 and the “area with substrate ENLRFQS” value was 0.0635. The “area with substrate ENLSFQS” value came out at 0.0767, the “area with substrate ENLTFQS” value stood at 0.0648, the “area with substrate ENLVFQS” value turned out to be 0.0405 and the “area with substrate ENLWFQS” value turned out to be 0.0683.
For the variant MGESLFKGPRDDNPISSSICHLTNESDGHTTSLYGIGFGPFIITNKHLFRRNNGTLVVQSLHGVFKVKDTTTLQQHLVDGRDMIIIRMPKDFPPFPQKLKFREPQREERICLVTTNFQTKSMSSMVSDTSCTFPSGDGIFWKHWIQTKDGQCGSPLVSTRDGFIVGIHSASNFTNTNNYFTSVPKNFMELLTNQEAQQWVSGWRLNADSVLWGGHKVFMVKPEEPFQPVKEATQL [Y12D], the “area with substrate ENLAFQS” value is 0.0547, the “area with substrate ENLCFQS” value was 0.0756, the “area with substrate ENLDFQS” value stood at 0.0523 and the “area with substrate ENLFFQS” value was determined as 0.0734. In addition, the “area with substrate ENLGFQS” value amounted to 0.05, the “area with substrate ENLHFQS” value is 0.0833, the “area with substrate ENLKFQS” value came out at 0.0906 and the “area with substrate ENLLFQS” value came to 0.0764. Further, the “area with substrate ENLNFQS” value worked out at 0.0616, the “area with substrate ENLPFQS” value amounted to 0.0546, the “area with substrate ENLQFQS” value worked out at 0.0529 and the “area with substrate ENLSFQS” value was 0.0567. For the same variant, the “area with substrate ENLVFQS” value came out at 0.0893 and the “area with substrate ENLWFQS” value stood at 0.0708.
MGESLFKGPRDENPISSSICHLTNESDGHTTSLYGIGFGPFIITNKHLFRRNNGTLVVQSLHGVFKVKDTTTLQQHLVDGRDMIIIRMPKDFPPFPQKLKFREPQREERICLVTTNFQTKSMSSMVSDTSCTFPSGDGIFWKHWIQTKDGQCGSPLVSTRDGFIVGIHSASNFTNTNNYFTSVPKNFMELLTNQEAQQWVSGWRLNADSVLWGGHKVFMVKPEEPFQPVKEATQL [Y12E]: the “area with substrate ENLAFQS” value is 0.0678, the “area with substrate ENLCFQS” value amounted to 0.0642, the “area with substrate ENLDFQS” value is 0.0628 and the “area with substrate ENLEFQS” value was 0.0704. The “area with substrate ENLFFQS” value came out at 0.0811, the “area with substrate ENLHFQS” value was 0.0531, the “area with substrate ENLIFQS” value is 0.0775 and the “area with substrate ENLKFQS” value came to 0.0781. In addition, the “area with substrate ENLLFQS” value stood at 0.0696, the “area with substrate ENLNFQS” value was determined as 0.0697, the “area with substrate ENLPFQS” value turned out to be 0.11 and the “area with substrate ENLSFQS” value was 0.0684. In addition, the “area with substrate ENLVFQS” value stood at 0.0812 and the “area with substrate ENLWFQS” value came to 0.0669.
For MGESLFKGPRDYNPISHSICHLTNESDGHTTSLYGIGFGPFIITNKHLFRRNNGTLVVQSLHGVFKVKDTTTLQQHLVDGRDMIIIRMPKDFPPFPQKLKFREPQREERICLVTTNFQTKSMSSMVSDTSCTFPSGDGIFWKHWIQTKDGQCGSPLVSTRDGFIVGIHSASNFTNTNNYFTSVPKNFMELLTNQEAQQWVSGWRLNADSVLWGGHKVFMVKPEEPFQPVKEATQL [S17H], the “area with substrate ENLAFQS” value was 0.0596, the “area with substrate ENLDFQS” value worked out at 0.0664, the “area with substrate ENLEFQS” value worked out at 0.056 and the “area with substrate ENLFFQS” value turned out to be 0.0889. The “area with substrate ENLGFQS” value came to 0.0678, the “area with substrate ENLHFQS” value came out at 0.0728, the “area with substrate ENLKFQS” value was 0.082 and the “area with substrate ENLLFQS” value was 0.0755. For the same variant, the “area with substrate ENLNFQS” value was 0.0653, the “area with substrate ENLPFQS” value was 0.0551, the “area with substrate ENLQFQS” value stood at 0.0703 and the “area with substrate ENLRFQS” value was 0.0739. Besides, the “area with substrate ENLSFQS” value came to 0.0621.
On to MGESLFKGPRDYNPISESICHLTNESDGHTTSLYGIGFGPFIITNKHLFRRNNGTLVVQSLHGVFKVKDTTTLQQHLVDGRDMIIIRMPKDFPPFPQKLKFREPQREERICLVTTNFQTKSMSSMVSDTSCTFPSGDGIFWKHWIQTKDGQCGSPLVSTRDGFIVGIHSASNFTNTNNYFTSVPKNFMELLTNQEAQQWVSGWRLNADSVLWGGHKVFMVKPEEPFQPVKEATQL [S17E], for which the “area with substrate ENLAFQS” value turned out to be 0.087, the “area with substrate ENLCFQS” value was found to be 0.0646, the “area with substrate ENLDFQS” value is 0.0586 and the “area with substrate ENLEFQS” value came to 0.063. In addition, the “area with substrate ENLFFQS” value is 0.0873, the “area with substrate ENLHFQS” value was 0.0683, the “area with substrate ENLIFQS” value stood at 0.0881 and the “area with substrate ENLKFQS” value amounted to 0.0697. In addition, the “area with substrate ENLNFQS” value was 0.0727, the “area with substrate ENLPFQS” value was 0.0628, the “area with substrate ENLRFQS” value is 0.0808 and the “area with substrate ENLSFQS” value is 0.0597. The “area with substrate ENLTFQS” value amounted to 0.0719 and the “area with substrate ENLWFQS” value was 0.064.
On to MGESLFKGPRDYNPISKSICHLTNESDGHTTSLYGIGFGPFIITNKHLFRRNNGTLVVQSLHGVFKVKDTTTLQQHLVDGRDMIIIRMPKDFPPFPQKLKFREPQREERICLVTTNFQTKSMSSMVSDTSCTFPSGDGIFWKHWIQTKDGQCGSPLVSTRDGFIVGIHSASNFTNTNNYFTSVPKNFMELLTNQEAQQWVSGWRLNADSVLWGGHKVFMVKPEEPFQPVKEATQL [S17K], for which the “area with substrate ENLAFQS” value is 0.081, the “area with substrate ENLCFQS” value is 0.0765, the “area with substrate ENLDFQS” value is 0.0625 and the “area with substrate ENLFFQS” value was found to be 0.0845. Also, the “area with substrate ENLGFQS” value was found to be 0.0701, the “area with substrate ENLHFQS” value is 0.0763, the “area with substrate ENLIFQS” value was determined as 0.0796 and the “area with substrate ENLKFQS” value turned out to be 0.0871. Moreover, the “area with substrate ENLNFQS” value turned out to be 0.0614, the “area with substrate ENLPFQS” value is 0.0642, the “area with substrate ENLRFQS” value is 0.0715 and the “area with substrate ENLSFQS” value is 0.0631. The “area with substrate ENLVFQS” value turned out to be 0.1 and the “area with substrate ENLWFQS” value stood at 0.0676.
MEESLFKGPRDYNPISSSICHLTNESDGHTTSLYGIGFGPFIITNKHLFRRNNGTLVVQSLHGVFKVKDTTTLQQHLVDGRDMIIIRMPKDFPPFPQKLKFREPQREERICLVTTNFQTKSMSSMVSDTSCTFPSGDGIFWKHWIQTKDGQCGSPLVSTRDGFIVGIHSASNFTNTNNYFTSVPKNFMELLTNQEAQQWVSGWRLNADSVLWGGHKVFMVKPEEPFQPVKEATQL [G2E]: the “area with substrate ENLAFQS” value stood at 0.076, the “area with substrate ENLDFQS” value came to 0.0653, the “area with substrate ENLFFQS” value was found to be 0.103 and the “area with substrate ENLGFQS” value is 0.0691. In addition, the “area with substrate ENLHFQS” value is 0.0725, the “area with substrate ENLIFQS” value worked out at 0.0899, the “area with substrate ENLKFQS” value came out at 0.0796 and the “area with substrate ENLLFQS” value was 0.0629. In addition, the “area with substrate ENLNFQS” value stood at 0.0655, the “area with substrate ENLPFQS” value is 0.0473, the “area with substrate ENLQFQS” value was found to be 0.0482 and the “area with substrate ENLRFQS” value was 0.0781. Besides, the “area with substrate ENLSFQS” value was determined as 0.0511, the “area with substrate ENLTFQS” value came to 0.0757, the “area with substrate ENLVFQS” value worked out at 0.072 and the “area with substrate ENLWFQS” value stood at 0.066.
As for MGESLFKGWRDYNPISSSICHLTNESDGHTTSLYGIGFGPFIITNKHLFRRNNGTLVVQSLHGVFKVKDTTTLQQHLVDGRDMIIIRMPKDFPPFPQKLKFREPQREERICLVTTNFQTKSMSSMVSDTSCTFPSGDGIFWKHWIQTKDGQCGSPLVSTRDGFIVGIHSASNFTNTNNYFTSVPKNFMELLTNQEAQQWVSGWRLNADSVLWGGHKVFMVKPEEPFQPVKEATQL [P9W], the “area with substrate ENLAFQS” value is 0.0669, the “area with substrate ENLCFQS” value turned out to be 0.0535, the “area with substrate ENLDFQS” value was found to be 0.0538 and the “area with substrate ENLFFQS” value came to 0.0821. In addition, the “area with substrate ENLGFQS” value was found to be 0.0766, the “area with substrate ENLHFQS” value was determined as 0.053, the “area with substrate ENLIFQS” value was found to be 0.0792 and the “area with substrate ENLKFQS” value came out at 0.067. In addition, the “area with substrate ENLLFQS” value was 0.0854, the “area with substrate ENLMFQS” value is 0.0854, the “area with substrate ENLNFQS” value was found to be 0.071 and the “area with substrate ENLPFQS” value turned out to be 0.0531. Also, the “area with substrate ENLSFQS” value was 0.0598 and the “area with substrate ENLWFQS” value was 0.0672.
As for MGESLFKGMRDYNPISSSICHLTNESDGHTTSLYGIGFGPFIITNKHLFRRNNGTLVVQSLHGVFKVKDTTTLQQHLVDGRDMIIIRMPKDFPPFPQKLKFREPQREERICLVTTNFQTKSMSSMVSDTSCTFPSGDGIFWKHWIQTKDGQCGSPLVSTRDGFIVGIHSASNFTNTNNYFTSVPKNFMELLTNQEAQQWVSGWRLNADSVLWGGHKVFMVKPEEPFQPVKEATQL [P9M], the “area with substrate ENLAFQS” value was determined as 0.039, the “area with substrate ENLCFQS” value came to 0.0746, the “area with substrate ENLDFQS” value is 0.0611 and the “area with substrate ENLFFQS” value came out at 0.0842. For the same variant, the “area with substrate ENLHFQS” value came out at 0.0673, the “area with substrate ENLIFQS” value came out at 0.101, the “area with substrate ENLKFQS” value is 0.0893 and the “area with substrate ENLPFQS” value was found to be 0.0718. Further, the “area with substrate ENLSFQS” value is 0.0437 and the “area with substrate ENLWFQS” value is 0.0779.
